Drawing on a collection of fitness landscapes (doi:10.1126/science.1257360), this text covers enrichment ratio for 153 variants.

The chains are these.
B1: PhoQ; a variant is named by its letters at X, in order, P23837 (parent)
chain: MKKLLRLFFPLSLRVRFLLATAAVVLVLSLAYGMVALIGYSVSFDKTTFRLLRGESNLFYTLAKWENNKLHVELPENIDKQSPTMTLIYDENGQLLWAQRDVPWLMKMIQPDWLKSNGFHEIEADVNDTSLLLSGDHSIQQQLQEVREDDDDAEMTHSVAVNVYPATSRMPKLTIVVVDTIPVELKSSYMVWSWFIYVLSANLLLVIPLLWVAAWWSLRPIEALAKEVRELEEHNRELLNPATTRELTSLVRNLNRLLKSERERYDKYRTTLTDLTHSLKTPLXXLQXXLRSLRSEKMSVSDAEPVMLEQISRISQQIGYYLHRASMRGGTLLSRELHPVAPLLDNLTSALNKVYQRKGVNISLDISPEISFVGEQNDFVEVMGNVLDNACKYCLEFVEISARQTDEHLYIVVEDDGPGIPLSKREVIFDRGQRVDTLRPGQGVGLAVAREITEQYEGKIVAGESMLGGARMEVIFGRQHSAPKDE

The other results are listed elsewhere or left out. Where only a bound is given, the exact number is not on record here.

The variants in this assay derive from B1. In words: enrichment ratio after two sorts for PhoP signalling (ratio (wild type AVST 3.29)); higher = more functional. Conditions: with PhoP (E. coli).
On to NWAN, for which the enrichment ratio was at most 0.25.

For AEMF, the enrichment ratio was at most 0.25.

Consider DKHI, for which the enrichment ratio is at most 0.25.

On to SKGW, for which the enrichment ratio was at most 0.25.

Regarding NSYN, the enrichment ratio worked out at 0.459.

Regarding LVAR, the enrichment ratio is at most 0.25.

For ICVM, the enrichment ratio is at most 0.25.

For the variant DQQY, the enrichment ratio was at most 0.25.

Turning to CRLV, the enrichment ratio is at most 0.25.

With QMAN, the enrichment ratio is at most 0.25.

On to THRY, for which the enrichment ratio was at most 0.25.

On to SRHY, for which the enrichment ratio was at most 0.25.

GGVV: the enrichment ratio is at most 0.25.

Regarding LPWH, the enrichment ratio was at most 0.25.

With NCMR, the enrichment ratio was at most 0.25.

Consider LGAV, for which the enrichment ratio is at most 0.25.

MHFE: the enrichment ratio was at most 0.25.

As to MDKE, the enrichment ratio is at most 0.25.

Turning to KVAA, the enrichment ratio is at most 0.25.

For the variant GCMN, the enrichment ratio is 4.94.

Regarding TCKW, the enrichment ratio was at most 0.25.

Consider EKNH, for which the enrichment ratio is at most 0.25.

As to NPEY, the enrichment ratio was at most 0.25.

Regarding LPQQ, the enrichment ratio was at most 0.25.

Turning to QKFN, the enrichment ratio is at most 0.25.

Regarding NNHI, the enrichment ratio was at most 0.25.

With WTSG, the enrichment ratio was at most 0.25.

Consider MVDY, for which the enrichment ratio was at most 0.25.

With DRQY, the enrichment ratio was at most 0.25.

As for PDRD, the enrichment ratio was at most 0.25.

Regarding NDVF, the enrichment ratio is at most 0.25.

For KRNA, the enrichment ratio was at most 0.25.

For the variant DSFV, the enrichment ratio is at most 0.25.

On to TWVF, for which the enrichment ratio is at most 0.25.

Regarding SMIY, the enrichment ratio was at most 0.25.

For the variant KADK, the enrichment ratio is at most 0.25.

NDGR: the enrichment ratio is at most 0.25.

Regarding PLML, the enrichment ratio was at most 0.25.

Regarding EPNL, the enrichment ratio was at most 0.25.

Regarding AESY, the enrichment ratio was 6.75.

Regarding EPHL, the enrichment ratio is at most 0.25.

With TGIY, the enrichment ratio was at most 0.25.

In the case of FKDH, the enrichment ratio is at most 0.25.

In the case of KQSS, the enrichment ratio was at most 0.25.

In the case of KMCK, the enrichment ratio was at most 0.25.

With PHHH, the enrichment ratio is at most 0.25.

In the case of KFND, the enrichment ratio was at most 0.25.

With KNKT, the enrichment ratio was at most 0.25.

In the case of RKCC, the enrichment ratio is at most 0.25.

On to LRKH, for which the enrichment ratio was at most 0.25.

Regarding YMYD, the enrichment ratio was at most 0.25.

Regarding DLKN, the enrichment ratio was at most 0.25.

For the variant VWKC, the enrichment ratio is at most 0.25.

For the variant KPFF, the enrichment ratio was at most 0.25.

Turning to FTWQ, the enrichment ratio is at most 0.25.

As for PYRL, the enrichment ratio is at most 0.25.

As for MLHS, the enrichment ratio is at most 0.25.

For the variant EELC, the enrichment ratio is at most 0.25.

SIGH: the enrichment ratio came out at 5.91.

With SMGI, the enrichment ratio turned out to be 7.04.

EGSA: the enrichment ratio was at most 0.25.

As to DRPK, the enrichment ratio is at most 0.25.

EHTS: the enrichment ratio was at most 0.25.

Take NDRT: the enrichment ratio was at most 0.25.

On to VWSS, for which the enrichment ratio was at most 0.25.

Take VHHY: the enrichment ratio is at most 0.25.

For the variant RSGQ, the enrichment ratio is at most 0.25.

With SIST, the enrichment ratio was 9.25.

Regarding VDIA, the enrichment ratio is at most 0.25.

Consider GQRH, for which the enrichment ratio is at most 0.25.

As to FFYV, the enrichment ratio is at most 0.25.

In the case of ITRR, the enrichment ratio was at most 0.25.

As for PIRY, the enrichment ratio is at most 0.25.

As for QFAQ, the enrichment ratio is at most 0.25.

As for FYCE, the enrichment ratio was at most 0.25.

For the variant AQNF, the enrichment ratio was determined as 1.47.

For the variant VNPR, the enrichment ratio is at most 0.25.

Consider QHPQ, for which the enrichment ratio was at most 0.25.

Consider GHTK, for which the enrichment ratio is at most 0.25.

Regarding FHRG, the enrichment ratio is at most 0.25.

For the variant WDFC, the enrichment ratio is at most 0.25.

For NAHG, the enrichment ratio was at most 0.25.

Consider HLTA, for which the enrichment ratio is at most 0.25.

Regarding AAAA, the enrichment ratio is at most 0.25.

Turning to DHWT, the enrichment ratio is at most 0.25.

PYQA: the enrichment ratio was at most 0.25.

Turning to ICSI, the enrichment ratio is at most 0.25.

For the variant DRHS, the enrichment ratio is at most 0.25.

Consider TQEF, for which the enrichment ratio was at most 0.25.

With NFWD, the enrichment ratio was at most 0.25.

EANK: the enrichment ratio was at most 0.25.

On to KPST, for which the enrichment ratio was at most 0.25.

As for LHPM, the enrichment ratio is at most 0.25.

Take ETPV: the enrichment ratio is at most 0.25.

With PDVM, the enrichment ratio was at most 0.25.

As to CHLR, the enrichment ratio is at most 0.25.

With VLQP, the enrichment ratio was at most 0.25.

On to GLQR, for which the enrichment ratio is at most 0.25.

With VEFN, the enrichment ratio is at most 0.25.

As to QGQS, the enrichment ratio was at most 0.25.

For AMGL, the enrichment ratio was 2.85.

For HMGS, the enrichment ratio is at most 0.25.

For the variant WKRY, the enrichment ratio was at most 0.25.

Consider YYKT, for which the enrichment ratio was at most 0.25.

Take HQHF: the enrichment ratio was at most 0.25.

As to PNRL, the enrichment ratio is at most 0.25.

For the variant PYLS, the enrichment ratio is at most 0.25.

In the case of RWPC, the enrichment ratio was at most 0.25.

As for SAET, the enrichment ratio is at most 0.25.

For AGCL, the enrichment ratio was found to be 15.2.

Turning to QYPN, the enrichment ratio is at most 0.25.

Take DPLC: the enrichment ratio was at most 0.25.

Turning to NHNQ, the enrichment ratio is at most 0.25.

On to HRTL, for which the enrichment ratio was at most 0.25.

SHFT: the enrichment ratio was at most 0.25.

As to WGQL, the enrichment ratio is at most 0.25.

For SEDY, the enrichment ratio was at most 0.25.

For DSVI, the enrichment ratio was at most 0.25.

In the case of VLLA, the enrichment ratio is at most 0.25.

Consider PYWT, for which the enrichment ratio is at most 0.25.

Turning to RTEY, the enrichment ratio is at most 0.25.

Consider WGTR, for which the enrichment ratio is at most 0.25.

For WLPW, the enrichment ratio is at most 0.25.

With SLRC, the enrichment ratio is 0.977.

As for TYFH, the enrichment ratio was at most 0.25.

In the case of EITD, the enrichment ratio is at most 0.25.

In the case of KIWA, the enrichment ratio was at most 0.25.

With FDIQ, the enrichment ratio was at most 0.25.

On to DVFH, for which the enrichment ratio is at most 0.25.

Regarding TDPN, the enrichment ratio was at most 0.25.

Consider LNNA, for which the enrichment ratio was at most 0.25.

For EYQC, the enrichment ratio was at most 0.25.

On to SFGK, for which the enrichment ratio is at most 0.25.

For TMYV, the enrichment ratio was at most 0.25.

For PPAS, the enrichment ratio is at most 0.25.

FWPP: the enrichment ratio was at most 0.25.

In the case of YNPF, the enrichment ratio was at most 0.25.

In the case of QPYD, the enrichment ratio is at most 0.25.

MFWF: the enrichment ratio was at most 0.25.

Turning to TSNN, the enrichment ratio is 12.2.

Turning to ALAW, the enrichment ratio came out at 5.81.

Regarding GPPW, the enrichment ratio was at most 0.25.

Turning to RHDP, the enrichment ratio was at most 0.25.

Consider VEMD, for which the enrichment ratio is at most 0.25.

With MMWS, the enrichment ratio is at most 0.25.

With GFKG, the enrichment ratio is at most 0.25.

IHRT: the enrichment ratio is at most 0.25.

On to SEHE, for which the enrichment ratio is at most 0.25.

As to AMAT, the enrichment ratio stood at 3.36.

As to GSHD, the enrichment ratio is at most 0.25.

Consider TPYY, for which the enrichment ratio was at most 0.25.

For VIRC, the enrichment ratio was at most 0.25.

Regarding PENP, the enrichment ratio is at most 0.25.
